According to PubChem BioAssay AID651820 (National Center for Advancing Translational Sciences (NCATS), 2012):
In all, about 340,000 compounds went through this assay and about 12,000 (3.5%) were called active. The shares of active, inactive and inconclusive entries below differ from those in the screen. Calls come from the whole dose curve; as a rule, active = well fitted inhibition curve with a large enough effect; inconclusive = small, poorly fitted or top-dose-only effect, or another doubt; inactive = no such curve, though single readings can be large or run the other way. No potency is given beside an inconclusive call; the fits are too rough.
% is set by controls: 0 for no effect and ±100 for the full control effect; potency is the fitted concentration of half-maximal effect; tags give direction and shape of the fitted curve.

Assay: qHTS Assay for Inhibitors of Hepatitis C Virus (HCV)
Conditions: Huh7.5.1 HCVcc-Cre (HCVcc is cell-culture hepatitis C virus) infection, luciferase reporter, 44 h; activity change, negative = inhibition: at 41.8 µM (top of the series) unless noted
Outline: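 Seed cells (1,000/well) for 4 h; treat with compound and infect with HCVcc-Cre, moi about 0.5. Incubate 44 h, then detect luciferase activity.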
In the case of `COc1ccc(/C=N/n2c(=O)[nH]c3c([nH]c4ccc(Cl)cc43)c2=O)cc1CN1CCCCC1`, the Potency is reported as inconclusive [inhibitor, single point].
With `CCN(CC)CCCNC(=O)c1c(O)c2cc(F)cc3c2n(c1=O)C(C)CC3` (centres undefined) the Potency was active: 10 µM.
For `Cc1sc2ncnc(NCC(C)(C)N3CCOCC3)c2c1C`, the Potency was active: 5.62 µM.
In the case of `COc1ccccc1C1NC(=O)NC(C)=C1C(=O)OC1CCC(C)CC1` (centres undefined), the Potency is reported as “inactive”.
For `CCCCn1c(SCc2cccc([N+](=O)[O-])c2)nc2ccsc2c1=O`, the Potency was inconclusive [inhibitor, single point].
With `Cc1ccc(C(NC(=O)C2CCCCC2)c2c(O)ccc3ccccc23)cc1` (centres undefined) the Potency was inconclusive [inhibitor, single point].
In the case of `CCOc1ncccc1C(=O)OCc1ccc(C(=O)OC)cc1`, the Potency is reported as inconclusive [inhibitor, full curve, poor fit].
For `CC(C)Cn1c(SCC(=O)NC(=O)NC2CCCC2)nc2ccccc21`, the Potency was active: 11.2 µM.
For `CCCCOc1ccc(C(=O)N/C(=C\c2ccc([N+](=O)[O-])cc2)C(=O)OCc2ccco2)cc1`, the Potency was inconclusive [inhibitor, partial curve].
With `COc1ccc(OP(=O)(Nc2ccccc2)Nc2ccccc2)cc1` the Potency was inconclusive [inhibitor, partial curve].
With `Cc1[nH]c2c(Br)cccc2c1[C@H]1[C@@H](CC#N)C1(C)C` the Potency was inconclusive [inhibitor, single point].
For `COc1cc(C(=O)Nc2c(C(=O)N3CCOCC3)oc3ccccc23)cc(OC)c1OC`, the Potency was inconclusive [inhibitor, single point].
For `CC(C)COC(=O)C1C2C=CC3(CN(C(C)c4ccc(Br)cc4)C(=O)C13)O2` (centres undefined), the Potency was inconclusive [inhibitor, single point].
For `CCOC(=O)C1=C(C)N=c2s/c(=C\C(=O)OC)c(=O)n2C1c1ccc(OC)cc1` (centres undefined), the Potency was inconclusive [inhibitor, full curve].
In the case of `CCCCN(CCCC)CCCNC(=O)C1CC(c2ccc(C(F)(F)F)cc2)=NO1` (centres undefined), the Potency is reported as inconclusive [inhibitor, single point].
In the case of `COc1ccc(C(=O)/C=C/C(=O)N(Cc2ccc(F)cc2)C(C(=O)NC2CCCCC2)c2ccncc2)c(O)c1` (centres undefined), the Potency is reported as inconclusive [inhibitor, single point].
In the case of `O=C(c1ccccc1)c1nn(-c2ccccc2)c2nnc(Cc3ccccc3)c(=O)n12`, the Potency is reported as inconclusive [inhibitor, partial curve].
For `COc1ccc(C2CC(c3ccc(Br)cc3)Nc3nc(N)nn32)cc1` (centres undefined), the Potency was “inactive”.
With `CCCC(=O)Nc1nc2ccc(NC(=O)c3c(F)c(F)c(OC)c(F)c3F)cc2s1` the Potency was inconclusive [inhibitor, full curve].
For `O=C1NC(=O)/C(=C\c2ccccc2OCc2cccc([N+](=O)[O-])c2)N1`, the Potency was inconclusive [inhibitor, single point].
In the case of `CC(C)c1ccccc1NC(=O)CNCCOc1ccccc1F`, the Potency is reported as “inactive”.
With `COC(=O)C1C(=O)c2c([nH]c(C(=O)OC3CCCC3C)c2C)CC1C` (centres undefined) the Potency was inconclusive [inhibitor, partial curve].
With `COc1ccc(NC(=O)c2cc3c(Cl)nc4ccccc4c3s2)cc1OC` the Potency was inconclusive [inhibitor, full curve, poor fit].
For `C=CCN(CC=C)Cc1nc(N)nc(Nc2ccccc2C)n1`, the Potency was “inactive”.
With `CCN(CC(=O)NCc1cccs1)C(=O)COc1ccc(C(C)=O)cc1` the Potency was inconclusive [inhibitor, partial curve, poor fit].
For `COC(=O)[C@@]1(Cc2ccc(F)cc2)[C@H]2c3cc(C(=O)N(C)C)n(Cc4c(CO)[nH]cc(C)c4=O)c3C[C@H]2CN1C(=O)c1ccccc1`, the activity change, negative = inhibition was inactive: 2.84% [at 8.37 µM].
In the case of `Cc1c(Br)c([N+](=O)[O-])nn1CC(=O)Nc1ccc(C(N)=O)cc1`, the Potency is reported as “inactive”.
With `Cn1cccc1-c1cc(C(=O)N/N=C/c2ccc(Cl)cc2)[nH]n1` the Potency was inconclusive [inhibitor, single point].
For `c1ccc(OCc2noc(CN3CCC(C4CCCCC4)C3)n2)cc1` (centres undefined), the Potency was “inactive”.
For `COc1ccc(CCNC(=O)Cn2cnc3c(cnn3C(C)(C)C)c2=O)cc1OC`, the Potency was inconclusive [inhibitor, single point].
In the case of `N#C/C(=C\c1ccc(Cl)cc1)C(=O)Nc1cccnc1`, the Potency is reported as “inactive”.
With `CCOc1ccc(NC(=O)CCN2CCN(S(=O)(=O)c3cc(Cl)ccc3OC)CC2)cc1` the Potency was inconclusive [inhibitor, partial curve].
With `COCCCNc1nc(N)c([N+](=O)[O-])c(NC2CCCCC2)n1` the Potency was inconclusive [inhibitor, single point].
With `Cc1cccc(NC(=O)C(C)OC(=O)c2ccccc2NS(=O)(=O)c2cc(C)c(C)c([N+](=O)[O-])c2)c1` (centres undefined) the Potency was inconclusive [inhibitor, partial curve].
With `Cc1ccc(C(=O)NCCc2c[nH]c3ccccc23)c(C)c1` the Potency was inconclusive [inhibitor, single point].
In the case of `CN(CC(=O)Nc1cccc(S(=O)(=O)N2CCCC2)c1)CC(=O)Nc1ccc(Cl)c(C(F)(F)F)c1`, the Potency is reported as active: 17.8 µM.
In the case of `Cc1ccc(/C=N/NC(=O)c2ccccc2OCc2cccc(Br)c2)o1`, the Potency is reported as inconclusive [inhibitor, single point].
With `CCc1nc(SCC(=O)N2c3ccccc3Sc3ccccc32)c2ccccc2n1` the Potency was inconclusive [inhibitor, full curve].
In the case of `CCS(=O)(=O)N1Cc2ccccc2CC1C(=O)Nc1nnc(SCc2c(Cl)cccc2Cl)s1` (centres undefined), the Potency is reported as “inactive”.
In the case of `COc1ccc(C2(c3ccc(OC)cc3)NC(=O)N(CC(=O)Nc3ccccc3C(F)(F)F)C2=O)cc1`, the Potency is reported as inconclusive [inhibitor, partial curve].
In the case of `O=C(Nc1cccc2ccccc12)c1ccc(Br)o1`, the Potency is reported as “inactive”.
For `COc1ccc(-c2ccc3ccccc3n2)cc1`, the Potency was inconclusive [inhibitor, single point].
For `Cc1ccc(C(C)(C)C)c(OCCOCCN2CCCC2)c1`, the Potency was inconclusive [inhibitor, single point].
With `O=C1CC(Sc2nnnn2-c2ccccc2)C(=O)N1c1cccc(Cl)c1` (centres undefined) the Potency was inconclusive [inhibitor, single point].
In the case of `O=C1N=C(N2CCCCC2)SC1=C1CCCCC1`, the Potency is reported as “inactive”.
For `CN(C)C(=S)N=c1ssc(=S)n1Cc1ccco1`, the Potency was inconclusive [inhibitor, single point].
In the case of `Cc1nn(-c2ccccc2)c(N)c1Sc1cccc([N+](=O)[O-])c1`, the Potency is reported as inconclusive [inhibitor, partial curve].
In the case of `CN1CCN(CCCn2cnc3c(=O)oc4ccccc4c32)CC1`, the Potency is reported as inconclusive [inhibitor, full curve].
With `CC(=O)c1cn(CC(=O)Nc2ccccc2Cl)c2ccccc12` the Potency was active: 11.2 µM.
For `Cc1sc2nc(COC(=O)c3ccc(N4CCCC4)c([N+](=O)[O-])c3)[nH]c(=O)c2c1C`, the Potency was inconclusive [inhibitor, partial curve].
In the case of `O=C(NCCn1ccc2ccccc21)c1ccc(S(=O)(=O)N2CCCCC2)cc1`, the Potency is reported as inconclusive [inhibitor, single point].
With `Cc1cccc(NC(=O)c2ccc([N+](=O)[O-])o2)c1` the Potency was active: 3.55 µM.
With `NC(=O)c1cc(S(=O)(=O)Nc2ccc(OC(F)(F)F)cc2)cs1` the Potency was “inactive”.
With `COCCCNC(=O)CCn1c(=O)c2ccccc2n(CC(=O)Nc2ccc(C)cc2C)c1=O` the Potency was “inactive”.
With `COc1ccc(-c2ccnc(-c3ccc(OCCCF)cc3)n2)cc1` the Potency was inconclusive [inhibitor, full curve].
With `O=C(Nc1cc2c(cc1Cl)-c1ccc([N+](=O)[O-])cc1C2=NO)C(F)(F)F` the Potency was inconclusive [inhibitor, full curve, poor fit].
With `COc1ccc(-c2nc(SCC(=O)NC3CCCC3)c(-c3ccc(OC)cc3)[nH]2)cc1` the Potency was inconclusive [inhibitor, single point].
For `CC12CCC(=O)N1C(C(=O)Nc1nc(-c3ccccc3Cl)cs1)CS2` (centres undefined), the Potency was active: 10 µM.
For `OC(CN1c2ccccc2Sc2ccccc21)Cn1nnc2ccccc21` (centres undefined), the Potency was inconclusive [inhibitor, single point].
For `CCOC(=O)c1c(C)n(-c2ccccc2)c2ccc(O)cc12`, the Potency was active: 10 µM.
With `O=C(COC(=O)CNS(=O)(=O)c1ccccc1)Nc1ccc(Cl)cn1` the Potency was inconclusive [inhibitor, single point].
With `O=C(O)C1C2C=CC(O2)C1C(=O)NCCC1=CCCCC1` (centres undefined) the Potency was “inactive”.
With `CC1CCCCC1NC(=O)Cn1cccc1C(=O)c1ccccc1` (centres undefined) the Potency was “inactive”.
For `O=C1CCC[C@@H]2[C@H](Cc3ccccc3)[C@@H](O)C[C@@H]3CCN1[C@@H]32`, the Potency was inconclusive [inhibitor, single point].
For `CCOC(=O)c1sc(NC(=O)COc2ccc3c(c2)OCO3)nc1C`, the Potency was “inactive”.
With `N#Cc1cccc(C(c2nnnn2C2CCCC2)N2CCCCCC2)c1` (centres undefined) the Potency was inconclusive [inhibitor, partial curve].
For `C/C(=N\NC(=O)c1ccncc1)c1cccc(NC(=O)c2ccc(C(C)(C)C)cc2)c1`, the Potency was active: 10 µM.
In the case of `CN(C)c1cc(-c2ccc(Cl)cc2Cl)oc(=O)c1Cl`, the Potency is reported as “inactive”.
In the case of `O=C(O)CC1COc2ccccc2N1C(=O)c1ccccc1Cl` (centres undefined), the Potency is reported as “inactive”.
